Results from the supplement of paper PMC11417369.
± gives the standard deviation of the averaged measurements. Some of the results follow.

tested on: PfAP2-LT AP2 domain (GST-tagged); experiment: gcPBM binding intensity (ln(normalized median fluorescence intensity)); higher = stronger DNA binding
Summary of the method: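 Probes on an Agilent 4 × 180k array were primer-extended, double-stranded and 36 bp long, taken from intergenic genomic regions, with negative controls added. GST-tagged P. falciparum DNA-binding domains from E. coli, about 25 μg on average, were applied to the array for 1 h in 1× PBS containing 1% milk, 0.2 mg/ml BSA, 0.5% salmon testes DNA and 0.03% Triton X-100. Binding intensity, obtained after Alexa488 anti-GST antibody detection and a 488 nm scan, is the highest Masliner-normalised natural-log median intensity across replicate spots of either probe orientation.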

Sequence	gcPBM binding intensity (ln)
TTAAAAAGAAAGTTCACACACATATATATGACGGAA [CACACA_site2602]	9.19 ± 0.35
AAAATAATATTTAATACACACATAATTATAATATAA [CACACA_site782]	8.75 ± 0.42
ATTTTTAATTGAATCACACATTTCCTTTCTTTTGTG [CACACA_site4438]	8.95 ± 0.45
CATAAAATATAAAACACACACACATATATTTATATA [CACACA_site6247]	9.66 ± 0.19
AAATAAAAGTTCACCTGTACACACATATATATATGT [XGTACX_site3513]	9.41 ± 0.38
TTAACATAGATATATACACACCAATGATGGCATTTA [CACACA_site6840]	8.79 ± 0.39
TTTTTTTTTTTTTAGAGTACACACTTTTTTACATTT [XGTACX_site8159]	8.71 ± 0.54
TATATATATATATATATACACACTATATAATTCAAA [CACACA_site1023]	9.67 ± 0.042
ATACTAAATATAAATTGTACTTTATTTATATTGAGA [XGTACX_site8699]	8.52 ± 0.4
TTCCTCTTAAAATATACACACTGATTTAAGAAAAAA [CACACA_site5770]	8.23 ± 0.42
ATATATAATACTACAGTGCAATATATTATATTTGTT	8.8 ± 0.39
TTGTGATTATTATATTGTACAATAAGTATTAAAGAA [XGTACX_site2753]	8.62 ± 0.46
GCAAATCATGCTATGGTGCATATGTAAGATGAGCAT	8.97 ± 0.4
TTACATATTATACGAAGTACGTACAAATACTTATAT [XGTACX_site8598]	8.78 ± 0.44
TTTTTTTTTTTTTTTTTTAAACACCTCAAAAAAAAA [CACACA_negctrl_site807]	7.91 ± 0.17
TTGCATTGTCCATGCGCACACACTACTAGAATAATA [CACACA_site3678]	9.22 ± 0.36
AATTATAAATTGGACACACACATAAAAAATATGTAC [CACACA_site221]	9.32 ± 0.41
TAAAGGAAATAAAAAACATGCAAATATGAAATATAT [TGCATGCA_site745]	8.91 ± 0.52
ATACATAATAACTCCTGTACTTAAAAATGTATATAT [XGTACX_site1071]	8.69 ± 0.45
TAAAAAAAAACATGTGCACACGTTTTATCTACATAA [CACACA_site2336]	10.1 ± 0.32
TCATTTATTGAGGAATGTACACGTAAAATTTAATAA [XGTACX_site4086]	8.62 ± 0.4
TTTTTTTTTTTTTTATGTACATATATATATTTTATT [XGTACX_site6915]	8.88 ± 0.49
ATATATATTATAAAATGTACAAATGTTATATAAAAT [XGTACX_site4750]	8.81 ± 0.46

Sequence	gcPBM binding intensity (ln)
ATTTTTTTTTTTTTTTTCTTTTTTCTTCTTTTTTTT [CACACA_negctrl_site1223]	8.63 ± 0.66
ACCTTATTTAGTTATAGTACACAAAGTATTAAACAT [XGTACX_site8418]	8.96 ± 0.3
GCGAATAATATGGACATACACACATATACATACATA [CACACA_site2115]	9.36 ± 0.4
TATATATATTTTTGTGTGCACTATAATATGAAAATA	8.82 ± 0.4
TTTTTTTTTTTCTTCACACACAGTACTACTATTTAT [CACACA_site2409]	9.28 ± 0.44
TTGTTTATTTGTAAAGCTAACAAGAAATGTGAATAT [CACACA_negctrl_site931]	8.58 ± 0.37
AACGAACACTATTACACACATACATACATATGTATG [CACACA_site1859]	9.34 ± 0.33
TTATTATTATAAAATTGTACTTGGTATATTAACATA [XGTACX_site5829]	8.45 ± 0.42
TATACATAAAAATGATGTACATATAATATATATATA [XGTACX_site3863]	8.81 ± 0.49
AATGTATTATGTCTTCGTACACATAAATAAATAAAT [XGTACX_site4004]	8.68 ± 0.44
ATATAAATATATTTTACACACAATGGAGAAAAAAAT [CACACA_site6450]	9.11 ± 0.48
ATCTTGAAGATTATTTGTACACAAAAGTTAAAATAT [XGTACX_site242]	8.57 ± 0.49
GGATTAATATATTTACCACACACCCATTTCGATTTT [CACACA_site9200]	9.28 ± 0.35
TATATAATTATTTATTGTACACTCAAATCGATAAGG [XGTACX_site3216]	8.47 ± 0.4
TATTTATAAATATAAACACACAACATTCTATGCATA [CACACA_site3243]	8.78 ± 0.43
TAAATCTATATCATCACACACACATACATAAATATA [CACACA_site6228]	9.63 ± 0.26
TAGTATTGTAAAAAAAAAAAAGAAAAAAAAAAAAAA [CACACA_negctrl_site977]	8.3 ± 0.49
AATATATGGTTCCTTGATATTAAATTCAATTTAATG [CACACA_negctrl_site71]	8.53 ± 0.4
TGTGTATATGTGCAAAGTACAAAAAAGAAATTATTT [XGTACX_site7569]	8.88 ± 0.47
GAAAAAAAATCCAAGATGCACTATTATTACAAAAAT [GTGCAC_site9516]	8.71 ± 0.51
ATGTAATATATGCGGAAATATATTCACAAGACGTCA [CACACA_negctrl_site373]	8.97 ± 0.4
GTCAAAAGTTTTTAAGGTACACTTATTTTATTATAA [XGTACX_site7004]	8.62 ± 0.45
CACTAAACATATACACGTACATGCAACGGATTTTTT [XGTACX_site461]	8.98 ± 0.35

Sequence	gcPBM binding intensity (ln)
ACCTTTATTGTATGAACACACATAAGCTGATACATC [CACACA_site4028]	9.21 ± 0.33
TGGATGTTAATATAGTGTACATTTATAAGTCAGTAT [XGTACX_site2949]	8.86 ± 0.42
GTGGAAAAAAATAATTGTACACAATAATAAATATAT [XGTACX_site2414]	8.87 ± 0.45
TGTATATATCAATGTACACACATGCGTATGTTCGTT [CACACA_site7654]	9.41 ± 0.38
TATAAAAAAAATTGCACACATATTATACAGGACGAC [CACACA_site701]	9.29 ± 0.38
AAAATATATATAACTTGTACATATACATACGTATAT [XGTACX_site4570]	8.88 ± 0.4
ATAATATATTTATGTTGTACAAGGAAAATTTTGAAA [XGTACX_site3472]	8.76 ± 0.42
GAAATGGAAAAATATACATGCGCATATAAATTAATA [TGCATGCA_site834]	8.98 ± 0.44
TTTTTGATGAAATATTATTTTCCTGACTTGGATTAA [CACACA_negctrl_site148]	8.44 ± 0.48
AACCATAAATAATTATGTACTAAAAAAAATATATAT [XGTACX_site3415]	8.64 ± 0.45
TGGAGGATAGTTCACAGTACCCAGAAACTCTACGGA [XGTACX_site2560]	8.73 ± 0.55
TTATTTATGATATATACACACTAACATTATTTATCC [CACACA_site6720]	8.98 ± 0.51
TCTTATATATGCTTAAATATATTATATTTATTTGAA [CACACA_negctrl_site1757]	8.46 ± 0.43
ATCATATGTATGCATACACACAAAAAATTATATATA [CACACA_site398]	9.14 ± 0.34
TATAATGATATAACAACACACATGTATGTATTATTA [CACACA_site230]	9.04 ± 0.35
TTTTTAATATATAAAGATAATAATAAATAAAATTCA [CACACA_negctrl_site657]	8.14 ± 0.46
TATAGATACCTATACACACACACACGGACATATATA [CACACA_site7585]	10 ± 0.25
AAAGAAATGAAATATACACACATACCTATATACATA [CACACA_site7817]	9.24 ± 0.41
ATATAAAACAACGGGTGTACAAAAAAATAAATAATA [XGTACX_site4094]	8.99 ± 0.61
TTTTTCTTCTGCATTATGCACACTATAATTCGTTAA [CACACA_site2837]	9.24 ± 0.38
CTGAATGTATATATTTGTACATATATATATATATAT [XGTACX_site5557]	9.3 ± 0.13
AAAAAAAAAAAACACGCATGTACATAAAAATAATCA [TGCATGCA_site142]	9.14 ± 0.42
GGGTATAATAAAAGCACACACAAAGATATAAATATA [CACACA_site3308]	9.4 ± 0.49

Sequence	gcPBM binding intensity (ln)
TTTTTTTTTTTTAATTAACACACATAAATATATATA [CACACA_site9077]	8.6 ± 0.35
TATAATGATGATGATAGTACGTATGAGTTCAAAAAA [XGTACX_site3656]	8.85 ± 0.42
TTAAAATCTTGAAAAGTGCATTATCATTTTGTAACG [GTGCAC_site9447]	8.49 ± 0.42
TATATATTTATATATGCATGTACATTTTTATTTATT [TGCATGCA_site1048]	8.96 ± 0.52
CTTTCATATGTTTTAACACACACGCATATATTATAG [CACACA_site7033]	9.26 ± 0.41
AAAAAAAAAAAAAATACACACACATATATATATATA [CACACA_site8698]	9.865 ± 0.05
AAGAATGTTAACGTTGCACACAAAAAAAAAGTATAC [CACACA_site8763]	9.22 ± 0.45
ATATAAGTTATTTTATACAAAAAAAAAAAAAAAAAT [CACACA_negctrl_site1190]	8.66 ± 0.45
TATTTATGCACGCGTGCACACACATATGAAAAAAGG [CACACA_site9090]	9.28 ± 0.3
AATTGCTAATGGTACGAACACACATATAAAGATGCA [CACACA_site8634]	9.05 ± 0.47
AGTATACACAGACACACACACACATATATATATATA [CACACA_site8510]	10.3 ± 0.42
TTTTTATGGACTATGGTGCATTATATATAAATGAAA [GTGCAC_site9557]	8.35 ± 0.34
TAATATTATATAAATTGTACTATTTTTTCCTTATTC [XGTACX_site5314]	8.64 ± 0.51
GTAAACAATTATGAACGTACATAAAATAAATGAACA [XGTACX_site7159]	9.12 ± 0.47
TGTCTTTTTAAGTTTTGTACATAAATATATTTCAAA [XGTACX_site427]	8.62 ± 0.38
TTTTCATTTTTCTTTACACACATATATATATATATA [CACACA_site2236]	9.28 ± 0.28
AAAAAAAAAAAAAAAAAAAAACACCCAAAAAAATAT [XGTACX_negctrl_site210]	8.86 ± 0.44
GAAAGACAAATTGTGACACACACAAAAAAAAAAAAA [CACACA_site9241]	9.26 ± 0.54
TATATATATATTTTTTGTACATATTATATAATATAC [XGTACX_site5187]	8.82 ± 0.38
TTTTCGATATGCTTTTTTTTTCTACTGTCTTTTTAA [TGCATGCA_negctrl_site54]	8.65 ± 0.61
